A lower IC50 marks a more sensitive line; a fit beyond the top or the lowest dose is shown as a bound at that dose. AUC sums up the same curve from the lowest dose to the 256-fold higher top dose; it is 1 without any effect and falls as sensitivity rises. Where the top dose is marked as inferred, it comes from the curve model; the source does not state it. For some of these results: Where an entry number is given, a second screen of the drug exists; the two often differ.
What was measured:
Test in all cases: Viability of human cancer cell lines after 72 h of drug (GDSC screen)
[1] = compound: NS(=O)(=O)OC[C@@H]1C[C@@H](n2ccc3c(N[C@H]4CCc5ccccc54)ncnc32)C[C@@H]1O [MLN4924]; settings: top dose 1 µM; top dose inferred
Protocol: (§1)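 Human cancer cell lines in 384-well plates, medium with 10% serum, drug for 72 h over a 256-fold dose range (nine 2-fold or five 4-fold steps up to the top dose). Adherent lines were fixed and stained with the nucleic acid dye Syto60, suspension lines read with resazurin; signal relative to control wells, capped at 0 and 100%. One two-parameter sigmoid per drug and line, fitted in a mixed model over all curves with the slope shared within a line.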

[2] = compound: Cn1ncnc1[C@H]1c2n[nH]c(=O)c3cc(F)cc(c23)N[C@@H]1c1ccc(F)cc1 [BMN-673]; settings: top dose 10 µM; top dose inferred
Protocol: as §1

[3] = compound: Cc1cc([C@@H](C)Nc2ccccc2C(=O)O)c2nc(N3CCOCC3)cc(=O)n2c1 [AZD6482]
Protocol: as §1

[4] = top dose 5 µM, screen: GDSC drug entry 1066, top dose inferred
[5] = top dose 5.12 µM, screen: GDSC drug entry 156

Cell Line	AUC [1]	IC50 [1] [nM]	AUC [2]	IC50 [2] [nM]	AUC [3, 4]	IC50 [3, 4] [nM]	AUC [3, 5]	IC50 [3, 5] [nM]
CTB-1 (B-cell lymphoma, suspension)	0.962	> 1000	0.917	> 10000	0.914	> 5000	0.842	> 5120
CTV-1 (acute myeloid leukaemia, suspension)	0.946	> 1000	0.724	2320	0.946	> 5000	0.97	> 5120
Ca9-22 (head and neck, adherent)	0.799	438	0.881	9170	0.892	> 5000	0.983	> 5120
Ca-Ski (cervix, adherent)	0.761	396	0.798	5450	0.97	> 5000	0.742	1740
Calu-6 (lung adenocarcinoma, adherent)	0.843	866	0.897	> 10000	–	–	0.979	> 5120
Caov-4 (ovary, adherent)	0.733	401	0.677	2470	0.977	> 5000	0.978	> 5120
ChaGo-K-1 (non-small cell lung carcinoma, adherent)	0.9	> 1000	0.939	> 10000	–	–	0.968	> 5120
D-283MED (medulloblastoma, adherent)	0.912	> 1000	0.908	> 10000	0.909	> 5000	0.991	> 5120
D-502MG (glioma, adherent)	0.735	433	0.707	3350	0.868	> 5000	0.943	> 5120
DB (B-cell lymphoma, suspension)	0.981	> 1000	0.896	> 10000	–	–	0.978	> 5120
DEL (lymphoid neoplasm, suspension)	0.674	170	0.496	613	0.994	> 5000	0.972	> 5120
DJM-1 (skin, adherent)	0.743	308	0.807	5080	0.983	> 5000	0.977	> 5120
DK-MG (glioma, adherent)	0.939	> 1000	0.911	> 10000	0.731	2010	0.932	> 5120
DMS-79 (small cell lung carcinoma, suspension)	0.973	> 1000	0.937	> 10000	0.977	> 5000	0.963	> 5120
DSH1 (bladder, adherent)	0.824	562	0.988	> 10000	0.917	> 5000	0.939	> 5120
DU-145 (prostate, adherent)	0.81	604	0.777	4510	0.652	867	0.944	> 5120
DU-4475 (breast, suspension)	0.528	73.3	0.98	> 10000	0.97	> 5000	0.973	> 5120
Daoy (medulloblastoma, adherent)	0.614	124	0.259	138	0.902	> 5000	0.9	> 5120
Detroit562 (head and neck, adherent)	0.778	389	0.893	> 10000	0.79	–	0.693	1090
EB2 (Burkitt lymphoma, suspension)	0.848	638	0.854	6740	0.99	> 5000	0.743	1460
EB-3 (Burkitt lymphoma, suspension)	0.852	981	0.975	> 10000	0.977	> 5000	0.913	> 5120
EBC-1 (lung squamous cell carcinoma, adherent)	0.692	233	0.84	8170	0.823	3470	0.867	> 5120
ECC10 (stomach, suspension)	0.6	119	0.913	> 10000	0.877	> 5000	0.949	> 5120
EFM-19 (breast, adherent)	0.967	> 1000	0.93	> 10000	0.926	> 5000	0.803	4290
EFO-21 (ovary, adherent)	0.947	> 1000	0.933	> 10000	0.872	> 5000	0.821	4860

Cell Line	AUC [1]	IC50 [1] [nM]	AUC [2]	IC50 [2] [nM]	AUC [3, 4]	IC50 [3, 4] [nM]	AUC [3, 5]	IC50 [3, 5] [nM]
EFO-27 (ovary, adherent)	0.978	> 1000	0.96	> 10000	0.916	> 5000	0.85	> 5120
EGI-1 (biliary tract, adherent)	0.951	> 1000	0.883	> 10000	0.917	> 5000	0.98	> 5120
EHEB (lymphoid neoplasm, suspension)	0.95	> 1000	0.847	> 10000	0.772	2890	0.741	2200
EJM (lymphoid neoplasm, semi-adherent)	0.992	> 1000	0.992	> 10000	0.961	> 5000	0.976	> 5120
EM-2 (chronic myeloid leukaemia, suspension)	0.534	78.1	0.789	5050	0.933	> 5000	0.98	> 5120
ES7 (Ewing sarcoma, adherent)	0.565	94.8	0.11	< 39.1	0.752	1700	0.597	593
EW-3 (Ewing sarcoma, adherent)	0.817	664	0.125	< 39.1	0.938	> 5000	0.939	> 5120
EW-13 (Ewing sarcoma, suspension)	0.964	> 1000	0.919	> 10000	0.958	> 5000	0.867	> 5120
EW-18 (Ewing sarcoma, suspension)	0.915	> 1000	0.934	> 10000	0.908	> 5000	0.928	> 5120
FU97 (stomach, adherent)	0.912	> 1000	0.915	> 10000	0.596	579	0.713	1310
FU-OV-1 (ovary, adherent)	0.977	> 1000	0.949	> 10000	0.913	> 5000	0.71	1530
G-292 Clone A141B1 (osteosarcoma, adherent)	0.88	> 1000	0.887	> 10000	0.72	1940	0.86	> 5120
G-361 (melanoma, adherent)	0.933	> 1000	0.938	> 10000	0.825	2840	0.775	1940
G-402 (soft tissue, adherent)	0.704	288	0.659	2020	0.829	4650	0.66	1040
GA-10 (Burkitt lymphoma, suspension)	0.922	> 1000	0.967	> 10000	0.818	2270	0.553	437
GAMG (glioma, adherent)	0.798	505	0.93	> 10000	0.665	920	0.798	2570
GCT (soft tissue, adherent)	0.468	51.6	0.665	1730	0.893	> 5000	0.95	> 5120
GDM-1 (acute myeloid leukaemia, suspension)	0.921	> 1000	0.969	> 10000	0.987	> 5000	0.782	2050
GOTO (neuroblastoma, adherent)	0.654	178	0.26	116	0.945	> 5000	0.969	> 5120
H4 (glioma, adherent)	0.68	198	0.376	285	0.567	476	0.847	3700
H2373 (mesothelioma, adherent)	0.758	430	0.799	6280	0.94	> 5000	0.919	> 5120
H2818 (mesothelioma, adherent)	0.897	> 1000	0.976	> 10000	0.966	> 5000	0.962	> 5120
H3255 (lung adenocarcinoma, adherent)	0.926	> 1000	0.885	> 10000	0.923	> 5000	0.959	> 5120
HA7-RCC (kidney, adherent)	0.578	104	0.674	2030	0.855	4650	0.969	> 5120

Source: the supplement of paper PMC4967469
